Laboratory results from patent US20150037336A1, “COMBINATION OF HB-EGF BINDING PROTEIN AND EGFR INHIBITOR” (U3 PHARMA GMBH, priority 2012, published 2015).

Tested on: EFO27-CI58 cells
Experiment: ovarian cancer xenograft study (EFO27-CI58 in SCID mice)
Format: in vivo, CB-17 SCID mice
Details: U2-39 25 mg/kg i.v. on days 17, 20 and 23, monotherapy; compared to vehicle control and cetuximab monotherapy; mean tumor volume ~550 mm3 at start; FIG. 1
Method: In order to evaluate the anti-tumor efficacy of the antibody of invention administered as a monotherapy or in combination with Erlotinib, an ovarian cancer xenograft study was conducted.
The human ovarian adenocarcinoma cell line EFO27 was genetically engineered to overexpress HB-EGF. The clone EFO27-CI58 was chosen for xenograft studies in SCID mice. 3×10^6 EFO27-CI58 cells in 100 μl PBS/Matrigel (1:1) were injected subcutaneously into the left flank of 7-8 week old female CB-17 SCID mice (approximate weight, 30 g). On day 16, after mean tumor volumes had reached approximately 550 mm3, 60 mice were randomized into 5 groups with 12 animals each. On day 17, treatment with U2-39, cetuximab (Erbitux®), Erlotinib (Tarceva®), vehicle control, PBS, or a combination of U2-39 and Erlotinib was initiated. PBS (10 ml/kg), U2-39 (25 mg/kg) and cetuximab (25 mg/kg) were administered intravenously (i.v.) on days 17, 20 and 23 (1, 4 and 7 days after randomization), whereas erlotinib (60 mg/kg) was administered once daily orally (p.o.) from day 17 today 24 either alone or in combination with U2-39. Prior to each treatment on days 17, 20 and 23, tumor volumes were determined by calliper measurement. Following calliper measurement, tumor size was calculated according to the formula W2×L/2 with L=length and W=the perpendicular width of the tumor.

B1: U2-39: anti-HB-EGF antibody; light chain SEQ ID NO: 1, heavy chain SEQ ID NO: 2; VL SEQ ID NO: 30, VH SEQ ID NO: 81 (antibody, listed as Homo Sapiens)
heavy: QVQLQESGPGLVKPSQTLSLNCTVSGGSISSGGYYWSWIRQHPGKGLEWIGYIHYSGSTYYNPSLKSRITISADTSKNQFSLKLNSVTAADTAVYYCARDRGGGDYGRMDVWGQGTTVTVSSASTKGPSVFPLAPCSRSTSESTAALGCLVKDYFPEPVTVSWNSGALTSGVHTFPAVLQSSGLYSLSSVVTVPSSNFGTQTYTCNVDHKPSNTKVDKTVERKCCVECPPCPAPPVAGPSVFLFPPKPKDTLMISRTPEVTCVVVDVSHEDPEVQFNWYVDGVEVHNAKTKPREEQFNSTFRVVSVLTVVHQDWLNGKEYKCKVSNKGLPAPIEKTISKTKGQPREPQVYTLPPSREEMTKNQVSLTCLVKGFYPSDIAVEWESNGQPENNYKTTPPMLDSDGSFFLYSKLTVDKSRWQQGNVFSCSVMHEALHNHYTQKSLSLSPGK
light: DIQMTQSPSSLSASVGDRVTITCRASQSISTYLNWYQQKPGKAPKFLIYAASSLQSGVPSRFSGSGSGTDFTLTISSLQPEDFAAYYCQQSHSAPFTFGPGTKVDIKRTVAAPSVFIFPPSDEQLKSGTASVVCLLNNFYPREAKVQWKVDNALQSGNSQESVTEQDSKDSTYSLSSTLTLSKADYEKHKVYACEVTHQGLSSPVTKSFNRGEC
tumor growth: significantly reduces EFO27-CL58 tumor growth
